Assay results reported in paper PMC6318328, “Structural insights into trans-histone regulation of H3K4 methylation by unique histone H4 binding of MLL3/4” (Nature Communications, 2019).

Experiments:
MLL3_(ePHD6)_(1055–1144) = molecular target: T1, MLL3_(ePHD6)_(1055–1144) (human, UniProt Q8NEZ4 1055-1144); assay: ITC; peptide (1–2 mM) in the syringe injected into protein (50–100 μM) in the cell; 25 °C; 20 mM Tris pH 7.5, 150 mM NaCl; single-site binding model; conditions: both partners purified
T1 construct: MLL3 (KMT2C), human, residues 1055–1144: the zinc finger before PHD6 and the sixth PHD domain; Monomer in solution by gel filtration; the dimer in the crystal is put down to crystal packing; also called extended PHD6 domain of MLL3; source: E. coli BL21 (DE3) Codon plus RIL, purified (Ni-NTA, thrombin, HiTrap Q, Superdex75); not shown: GST, N-terminal, cleaved; His tag, N-terminal, cleaved
T1 sequence (looked up): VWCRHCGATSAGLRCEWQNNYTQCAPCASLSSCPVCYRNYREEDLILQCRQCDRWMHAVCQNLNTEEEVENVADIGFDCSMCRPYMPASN

MLL4_(ePHD6)_(1475–1564) = molecular target: T2, MLL4_(ePHD6)_(1475–1564) (human, UniProt O14686 1475-1564); assay: as above; conditions: both partners purified
Chain of MLL4_(ePHD6)_(1475–1564) (O14686 1475-1564): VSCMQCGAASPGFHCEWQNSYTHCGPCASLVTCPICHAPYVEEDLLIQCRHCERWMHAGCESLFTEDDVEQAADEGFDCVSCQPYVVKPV
T2 construct: MLL4 (KMT2D, ALR), human, residues 1475–1564: the zinc finger before PHD6 and the sixth PHD domain; also called extended PHD6 domain of MLL4; source: E. coli BL21 (DE3) Codon plus RIL, purified (Ni-NTA, thrombin, HiTrap Q, Superdex75); not shown: GST, N-terminal, cleaved; His tag, N-terminal, cleaved

Kd (MLL3_(ePHD6)_(1055–1144)): 66 µM
Kd (MLL4_(ePHD6)_(1475–1564)): 28 µM
B1: histone H4 peptide H4_([…])R3A (peptide)
peptide: not shown
notes: histone H4, […] with R3A; also called R3A mutant of the histone H4_([…]) peptide; source: synthetic peptide (Peptide 2.0 Inc.)
